From publication PMC4336329 (PLoS ONE, 2015) come the findings set out here.

Structures are written as SMILES. The campaign covered roughly 310,000 compounds. About 2,200 (0.71%) showed an effect of 50% or more. Effects have a minus sign here. The list shows a part of the results.

The target in this test is human ether-à-go-go-related gene (hERG) potassium channel (human, UniProt Q12809). Nature of the test: primary screen, population patch clamp on CHO cells stably expressing hERG.
human ether-à-go-go-related gene (hERG) potassium channel, sequence (Q12809 whole entry, looked up): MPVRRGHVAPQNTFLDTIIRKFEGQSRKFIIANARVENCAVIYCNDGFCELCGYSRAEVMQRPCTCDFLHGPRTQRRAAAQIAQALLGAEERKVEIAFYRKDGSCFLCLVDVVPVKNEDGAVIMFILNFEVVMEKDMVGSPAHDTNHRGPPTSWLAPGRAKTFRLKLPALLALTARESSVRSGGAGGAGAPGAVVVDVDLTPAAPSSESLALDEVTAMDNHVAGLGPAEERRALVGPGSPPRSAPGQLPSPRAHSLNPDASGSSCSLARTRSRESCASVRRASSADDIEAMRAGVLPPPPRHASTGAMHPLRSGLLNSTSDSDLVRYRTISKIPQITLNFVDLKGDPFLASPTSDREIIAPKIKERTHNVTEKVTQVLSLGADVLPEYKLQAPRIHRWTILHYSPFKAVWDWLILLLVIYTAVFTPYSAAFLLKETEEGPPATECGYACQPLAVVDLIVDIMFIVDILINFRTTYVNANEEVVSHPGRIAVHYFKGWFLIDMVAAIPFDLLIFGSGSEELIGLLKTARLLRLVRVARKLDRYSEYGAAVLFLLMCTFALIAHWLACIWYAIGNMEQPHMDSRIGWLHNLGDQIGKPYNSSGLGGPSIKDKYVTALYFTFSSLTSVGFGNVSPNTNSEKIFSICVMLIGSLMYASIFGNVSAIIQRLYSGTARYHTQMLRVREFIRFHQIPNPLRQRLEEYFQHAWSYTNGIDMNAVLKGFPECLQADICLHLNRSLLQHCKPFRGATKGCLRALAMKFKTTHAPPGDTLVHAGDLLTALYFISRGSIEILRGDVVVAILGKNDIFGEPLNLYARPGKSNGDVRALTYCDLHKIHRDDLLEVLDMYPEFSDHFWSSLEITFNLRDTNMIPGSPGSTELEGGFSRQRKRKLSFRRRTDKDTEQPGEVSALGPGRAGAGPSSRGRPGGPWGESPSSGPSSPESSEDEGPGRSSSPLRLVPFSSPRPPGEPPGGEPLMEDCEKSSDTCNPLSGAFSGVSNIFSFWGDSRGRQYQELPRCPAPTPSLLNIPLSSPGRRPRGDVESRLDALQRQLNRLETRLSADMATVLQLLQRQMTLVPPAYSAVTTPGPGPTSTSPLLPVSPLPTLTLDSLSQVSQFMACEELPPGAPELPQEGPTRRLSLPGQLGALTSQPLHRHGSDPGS
As to `CCOC(=O)Nc1nnc(-c2ccc(OC)c(OC)c2)s1`, the “hERG current change (%, negative = inhibition) at 1uM” value is recorded as 11.4%.
As for `C=CCn1c(SCC(=O)NCc2ccccc2)nnc1-c1ccccc1O`, the figure is -0.209%.
As for `CCOc1ccc(CCNC(=O)COC(=O)c2ccc3c(c2)OCCO3)cc1OCC`, the figure is 11%; as for `CC(C)Cc1nnc(NC(=O)CCC(=O)N2CCOCC2)s1`, 0.0241%.
As for `Clc1cccc(CSc2nnc(-c3ccccn3)n2Cc2ccco2)c1`, the figure is 9.48%; as for `CCN(CC(=O)Nc1ccc2c(c1)OCCO2)C(=O)c1ccc([N+](=O)[O-])s1`, 4.78%.
On to `CC(C)Oc1cccc(C(=O)C2CCCN(C(=O)c3cc(C(F)(F)F)[nH]n3)C2)c1` (centres unmarked), for which the “hERG current change (%, negative = inhibition) at 1uM” value stood at 11.2%.
As for `COC(=O)c1ccccc1S(=O)(=O)N1CCC(C(=O)NC2CCCCC2C)CC1` (centres unmarked), the figure is 10%; as for `O=C1NC(Cc2ccccc2)C(=O)N1Cc1cc([N+](=O)[O-])cc2c1OCOC2` (centres unmarked), 10%; as for `CC(=O)Nc1nonc1-c1nc2ccccc2n1Cc1ccccn1`, 5.58%.
As for `C#CCOCCOCCOCCNc1nc(N2CCN(C(=O)CCCCCCCCCCNC(=O)Cn3cc(C[C@@H](C)O)nn3)CC2)nc(N2CCN(C(=O)CCCCCCCCCCNC(=O)[C@@H](CCC(=O)O)n3cc(CCCCCN)nn3)CC2)n1`, the figure is 13.4%; as for `CN(Cc1nc(-c2ccccn2)no1)S(=O)(=O)c1ccc(Br)cc1`, 3.72%; as for `COc1cccc(N(CC(=O)N2CCc3ccccc3C2)S(C)(=O)=O)c1`, 0.216%.
As for `Cc1ccc(NC(=O)CN2C(=O)CNC2=O)cc1`, the figure is 15.8%; as for `CCOc1ccc2[nH]c(=O)c(CN(Cc3nnnn3CCc3ccccc3)CC3CCCO3)cc2c1` (centres unmarked), -3.6%; as for `CC(C)(CN1CCOCC1)NS(=O)(=O)c1ccccc1`, 6.67%.
With `Cc1cccn2c(=O)nc(SCC(=O)NCc3ccccc3Cl)nc12`, the “hERG current change (%, negative = inhibition) at 1uM” value is reported as 4.08%.
As for `COc1ccc(-c2cc(CN3C(=O)c4ccccc4C3=O)on2)cc1`, the figure is 6.01%; as for `Cc1ccc(Cn2c(=N)c(C(=O)NCC3CCCO3)cc3c(=O)n4cccc(C)c4nc32)cc1` (centres unmarked), -85.9%.
Turning to `CCOC(=O)C1=C(COC(=O)COc2ccc(Br)cc2)NC(=O)NC1C` (centres unmarked), the “hERG current change (%, negative = inhibition) at 1uM” value came to 18.2%.
Turning to `COc1ccc2c(C(=O)CCl)c[nH]c2c1`, the “hERG current change (%, negative = inhibition) at 1uM” value came out at 12.5%.
As for `FC(F)(F)c1ccc(-c2noc(CN3CCCN(C4CCCCC4)CC3)n2)cc1`, the figure is -75.3%; as for `Cc1ccc(N2C(=O)/C(=C\c3ccc(C(C)C)cc3)N=C2SC2CCOC2=O)cc1` (centres unmarked), 15.8%.
As for `CCn1nc(NC(=O)c2ccccc2)c2cc3cccc(C)c3nc21`, the figure is 11%; as for `CNC(=O)c1cccn1-c1ccsc1C(=O)OC`, 13.1%; as for `COc1cccc(N2CCN(C(=O)c3cc(C)oc3C)CC2)c1`, 6.38%.
As for `CCCc1nn2c(=O)cc(O)nc2s1`, the figure is 14.8%; as for `C[C@H](NC(=O)c1cc2cc(Cl)ccc2n1C)C(=O)N[C@@H](Cc1ccccc1)C(=O)O`, 12.6%.
On to `CCOC(=O)c1c(NC(=O)C2CCCO2)sc(C)c1C` (centres unmarked), for which the “hERG current change (%, negative = inhibition) at 1uM” value is listed as 12.3%.
As for `O=[N+]([O-])c1ccc(Nc2nc(Cl)nc(NCCO)n2)cc1`, the figure is 2.88%.
As for `C=CCOC(=O)C1=C(C)OC(N)=C(C#N)[C@@]12C(=O)N(CC(N)=O)c1ccccc12`, the figure is -0.87%.
As for `O=C(COc1ccccc1)OCc1cc(-c2ccco2)on1`, the figure is 10.6%; as for `O=C(Cc1ccccc1)N1CCN(c2ccccc2F)CC1`, 20.3%; as for `COc1ccc(OC)c(NC(=O)c2ccc(CSc3nnc(C)s3)cc2)c1`, 9.22%.
For `O=C(c1ccccc1[N+](=O)[O-])N1CCc2ccccc2C1`, the “hERG current change (%, negative = inhibition) at 1uM” value stood at 8.58%.
As for `O=c1c2ccccc2c(C=Nc2ccccc2O)c(O)n1-c1nccs1`, the figure is 8.26%; as for `Cc1nc2cc(NC(=O)CCS(=O)(=O)c3ccccc3)ccc2s1`, 10.1%.
As for `O=C(NCc1cccnc1)c1cc(-c2ccc(Cl)cc2)oc1C(F)(F)F`, the figure is 10.5%; as for `CCn1nc(C)c(Br)c1-c1nc(CS(=O)(=O)c2ccsc2)no1`, 9.13%; as for `Cc1ccc(-n2ncc(C#N)c2N)cc1`, 9.2%.
As for `CN(C(=O)COC(=O)CN1C(=O)C2CC=CCC2C1=O)c1ccccc1` (centres unmarked), the figure is 19%.
For `CCN(CC)c1ccc(/C=N/NC(=O)CNC(=O)C2COc3ccccc3O2)c(O)c1` (centres unmarked), the “hERG current change (%, negative = inhibition) at 1uM” value is -2.1%.
As for `CCOc1cc(/C=N/Nc2ncnc(Cl)c2N)ccc1O`, the figure is 17.8%; as for `COc1cc([N+](=O)[O-])c(C(=O)N2CCOCC2)c([N+](=O)[O-])c1`, 9.84%; as for `O=[N+]([O-])c1cc(Cl)c(Cl)c(Cl)c1Cl`, 18.5%.
Consider `COC(=O)c1cc2c(N)c(C(=O)c3ccc(Cl)cc3)sc2nc1C(OC)OC`, for which the “hERG current change (%, negative = inhibition) at 1uM” value is recorded as -32.2%.
As for `CC1CN(c2ccc(Cl)nn2)CC(C)O1` (centres unmarked), the figure is -5.24%; as for `Cc1cc(NC(=O)CCC(=O)N(CC(=O)NC2CCCC2)c2ccc3c(c2)OCCO3)no1`, 10.3%; as for `COC(=O)C(c1ccccc1)C1(O)CC(C)N(C)CC1C` (centres unmarked), 6.08%.
As for `Cc1ccc(OCC(=O)Nc2ccc([N+](=O)[O-])cc2)cc1`, the figure is 10.8%; as for `O=C1CC(C(=O)Nc2ccc(F)cc2)S/C(=N\N=C\c2ccco2)N1` (centres unmarked), 9.9%; as for `O=C(CN1CCN(S(=O)(=O)c2ccc(Cl)cc2)CC1)Nc1ccc2c(c1)CCC2`, 10.6%.
As for `COC(=O)c1nn(-c2cccc(C)c2)c2nnc(Cc3ccc(C)cc3)c(=O)n12`, the figure is 4.21%; as for `CC1CCN(C(=O)CSc2nc3ccccc3[nH]2)CC1`, -4.01%; as for `O=C(NCc1ccncc1)C(=O)NCC1OCCCN1S(=O)(=O)c1cc(F)ccc1F` (centres unmarked), 8.04%.
Regarding `N/C(=N\OC(=O)c1ccc(=O)n(Cc2ccccc2)c1)c1ccccn1`, the “hERG current change (%, negative = inhibition) at 1uM” value is given as 23.4%.
